Test results: PubChem BioAssay AID2546 (National Center for Advancing Translational Sciences (NCATS), 2010)
Hit rate of the full screen: of about 310,000 compounds, about 11,000 (3.5%) were called active. Inconclusive means that the source gave no clear call. Such entries were picked first, then a sample of the others. Calls follow the shape of the dose curve; as a rule, active = well fitted inhibition curve with a large enough effect; inconclusive = small, poorly fitted or top-dose-only effect, or effect the other way; inactive = flat fitted curve, though single readings scatter. No potency is given beside an inconclusive call; the fits are too rough.

Assay: VP16 counterscreen qHTS for inhibitors of ROR gamma transcriptional activity;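 also: Gal4-VP16 expression switched on by copper sulfate through the metallothionein promoter; nearly all actives have a fitted effect of over 50% in size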
Details: Drosophila S2 Gal4-VP16 UAS-luciferase, luminescence, 20 h; activity, negative = inhibition: at 53.6 µM (top of the series)
% is scaled to controls: 0 for no effect and ±100 for the full control effect; potency is read from the fitted curve at half-maximal effect; tags tell the direction and shape of the fitted curve.

| SMILES | Potency | activity, negative = inhibition |
| --- | --- | --- |
| O=[N+]([O-])C(/C=C(\Cl)[N+](=O)[O-])=C1N(Cc2ccc(Cl)nc2)CCN1Cc1ccc(Cl)nc1 | inconclusive [inhibitor, partial curve] | – |
| CCOc1ccc(-c2cnc3n2CCCCC3)cc1 | inconclusive [inhibitor, single point] | – |
| N/N=C(/Cc1nc2ccccc2[nH]1)c1ccc([N+](=O)[O-])cc1 | inconclusive [inhibitor, single point] | – |
| COc1cc(SC#N)ccc1N=Cc1c(C)[nH]n(-c2ccc(C)c(C)c2)c1=O | active: 4.47 µM | – |
| Cc1ccc(/C=N/NC(=O)c2cccc(S(=O)(=O)Nc3cccc(Cl)c3)c2)o1 | inconclusive [inhibitor, single point] | – |
| C=CCc1ccc(OCCn2cccc2C=O)c(OC)c1 | active: 0.562 µM | – |
| CCCCCc1cc(=O)oc2c(C(CCN(CC)CC)c3ccc(OC)cc3)c(OC)cc(OC)c12 (stereo unspecified) | active: 8.91 µM | – |
| COc1ccc(C)cc1NC(=O)CSc1nnc(-c2cc3cccc(OC)c3o2)n1N | inconclusive [inhibitor, single point] | – |
| c1ccc(-c2noc(-c3cccc4ccccc34)n2)nc1 | active: 10 µM | – |
| Cc1onc(-c2ccccc2Cl)c1C(=O)N/N=C(\N)COc1ccc(Cl)cc1 | active: 1 µM | – |
| Cc1ccc(OC(C)C(=O)Nc2ccncc2)cc1C (stereo unspecified) | inconclusive [inhibitor, single point] | – |
| CC(C)(C)OC(=O)NCCCC[C@H](NC(=O)c1nc[nH]c1C(=O)NCC(=O)OCc1ccccc1)C(=O)OC(C)(C)C | inconclusive [inhibitor, single point] | – |
| O=C(Nc1nc2ccccc2n1CCN1CCCCC1)c1ccc(Cl)cc1 | inconclusive [inhibitor, single point] | – |
| COc1ccc2c(c1)OCc1c-2oc2cc(OC)ccc12 | inconclusive [activator, full curve] | – |
| COc1ccccc1NC(=O)c1cc2ccc(O)cc2o/c1=N\O | active: 2.24 µM | – |
| O=C(O)c1cccc(S(=O)(=O)Nc2ccc3c(c2)CCC3)c1 | active: 10 µM | – |
| COCn1c(COc2ccc3ccccc3c2)nc2ccccc21 | inconclusive [inhibitor, single point] | – |
| COc1ccc(C(=O)NC(=S)Nc2ccc(NC(=O)c3ccco3)cc2)cc1[N+](=O)[O-] | inconclusive [inhibitor, single point] | – |
| CCOc1ccccc1NC(=O)COC(=O)CC(C)(C)CC1=NS(=O)(=O)c2ccccc2N1 | inactive | – |
| CC(=O)c1ccc(NC(=O)c2ccc([N+](=O)[O-])o2)cc1 | active: 12.6 µM | – |
| Cn1cccc1C(=O)N1CCC2(CCCN(c3ccncc3)C2)CC1 | inactive | – |
| O=[N+]([O-])c1cc(Cl)cc(/C=N/NC(=S)Nc2cc(S(=O)(=O)N3CCOCC3)ccc2Cl)c1O | inconclusive [inhibitor, full curve, poor fit] | – |
| c1ccc(-c2nnc3n2NC(c2ccc4c(c2)OCO4)S3)cc1 (stereo unspecified) | inconclusive [inhibitor, single point] | – |

| SMILES | Potency | activity, negative = inhibition |
| --- | --- | --- |
| COc1ccccc1N1C(=NC(=O)C(C)Oc2ccccc2)SC2CS(=O)(=O)CC21 (stereo unspecified) | inactive | – |
| COc1ccc(-c2noc(N3CCC(C(=O)NCc4ccc(Cl)cc4)CC3)n2)cc1 | inconclusive [inhibitor, single point] | – |
| CCS(=O)(=O)n1nc(-c2ccc(Cl)cc2)nc1SCc1ccccc1 | inconclusive [inhibitor, single point] | – |
| CCOC(=O)c1c(-c2ccc(OC)cc2)csc1/N=C/C1=C(O)CCCC1=O | inconclusive [inhibitor, single point] | – |
| Cc1oc(-c2ccc(Cl)cc2)nc1CS(=O)CC(=O)NC1CCCCCC1 (stereo unspecified) | inactive | – |
| CCCCC1NC(C(=O)O)CS1 (stereo unspecified) | inconclusive [activator, single point] | – |
| O=C(NCc1ccccn1)Nc1cccc(F)c1 | inconclusive [activator, single point] | – |
| CSC1=C(C#N)C(c2ccccc2Cl)C(C(C)=O)=C(C)N1 (stereo unspecified) | inactive | – |
| Cc1cc(OCC(=O)Nc2ccncc2)c(C)cc1Br | active: 12.6 µM | – |
| c1ccn2c(SCc3ccc4c(c3)OCCO4)nnc2c1 | inconclusive [activator, full curve] | – |
| CCN(CC)c1ccc(/C=N/N(c2ccccc2)c2ccccc2)c(O)c1 | inconclusive [inhibitor, single point] | – |
| O=[N+]([O-])c1ccc(N2CCCCCC2)c([N+](=O)[O-])c1 | – | inactive: 5.78% [at 0.365 µM] |
| CC(C)Nc1nnc(SCc2cc(=O)n3ccsc3n2)s1 | inactive | – |
| Cc1ccc(-n2ncc(C(=O)N3CCc4ccccc4C3)c2NC(=O)c2ccco2)cc1C | inconclusive [inhibitor, single point] | – |
| Cc1c(C(=O)c2ccc(Cl)cc2Cl)cnc2cc3c(cc12)OCO3 | inconclusive [inhibitor, single point] | – |
| S=c1nc(-c2csc3c2CCCC3)[nH][nH]1 | active: 11.2 µM | – |
| COc1ccc2nc(/N=C(\N)NC(=O)Nc3ccccc3)nc(C)c2c1 | inconclusive [inhibitor, single point] | – |
| Oc1ccc(Cl)cc1-c1cc(-c2cccc(Br)c2)n[nH]1 | active: 0.891 µM | – |
| CN1/C(=C\C(=O)c2cccs2)C(C)(C)c2ccccc21 | inconclusive [activator, single point] | – |
| COc1ccc(NC(=S)N/N=C2/CCCc3c(C)cc(C)cc32)cc1 | inconclusive [inhibitor, full curve] | – |
| CCCOc1ccc(/C=N/Nc2cc(N3CCOCC3)ncn2)c(O)c1 | active: 17.8 µM | – |
| COC(=O)c1cccc2c1-c1ccccc1/C2=N/O | inconclusive [inhibitor, single point] | – |
| FC(F)Sc1nc2ccccc2[nH]1 | inconclusive [inhibitor, single point] | – |
